# Measurements taken from paper PMC3179854.
# B1: CYP3A4 (Homo sapiens) (protein)
# chain: MALIPDLAMETWLLLAVSLVLLYLYGTHSHGLFKKLGIPGPTPLPFLGNILSYHKGFCMFDMECHKKYGKVWGFYDGQQPVLAITDPDMIKTVLVKECYSVFTNRRPFGPVGFMKSAISIAEDEEWKRLRSLLSPTFTSGKLKEMVPIIAQYGDVLVRNLRREAETGKPVTLKDVFGAYSMDVITSTSFGVNIDSLNNPQDPFVENTKKLLRFDFLDPFFLSITVFPFLIPILEVLNICVFPREVTNFLRKSVKRMKESRLEDTQKHRVDFLQLMIDSQNSKETESHKALSDLELVAQSIIFIFAGYETTSSVLSFIMYELATHPDVQQKLQEEIDAVLPNKAPPTYDTVLQMEYLDMVVNETLRLFPIAMRLERVCKKDVEINGMFIPKGVVVMIPSYALHRDPKYWTEPEKFLPERFSKKNKDNIDPYIYTPFGSGPRNCIGMRFALMNMKLALIRVLQNFSFKPCKETQIPLKLSLGGLLQPEKPVVLKVESRDGTVSGA
# Substrate: COc1ccc2c(c1)[C@]13CCCC[C@@H]1[C@H](C2)N(C)CC3
# Experiment: not read
# Conditions: other: CYP3A4, Michaelis-Menten fit
protein,measurement,value
B1,Km,106 ± 64 µM
same,kcat,0.633 ± 0.133 s⁻¹
